The full ranking holds about 33,000 sequences; the median of “E-score (-0.5 to 0.5)” is about -0.035, and the highest 2% start at about 0.34. Some of the results follow.
Target: T1, Mot3 (UniProt P54785)
T1 sequence: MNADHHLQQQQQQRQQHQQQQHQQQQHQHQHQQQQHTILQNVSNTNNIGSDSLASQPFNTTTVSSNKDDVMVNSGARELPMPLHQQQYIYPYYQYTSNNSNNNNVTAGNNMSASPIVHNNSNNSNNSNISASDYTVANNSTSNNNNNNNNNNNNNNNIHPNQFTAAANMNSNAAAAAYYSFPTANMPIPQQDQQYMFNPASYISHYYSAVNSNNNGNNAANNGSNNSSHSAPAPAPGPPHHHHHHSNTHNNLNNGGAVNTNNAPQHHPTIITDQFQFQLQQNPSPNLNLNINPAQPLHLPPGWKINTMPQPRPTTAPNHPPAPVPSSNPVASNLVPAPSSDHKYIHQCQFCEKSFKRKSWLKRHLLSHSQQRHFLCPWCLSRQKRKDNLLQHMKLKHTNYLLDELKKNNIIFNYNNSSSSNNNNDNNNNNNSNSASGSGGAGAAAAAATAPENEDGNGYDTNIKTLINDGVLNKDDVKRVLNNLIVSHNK
Assay: PBM E-score (8-mer binding enrichment) (E-score (-0.5 to 0.5)); higher = stronger / more preferred TF binding; most listed sequences are background and not binding sites
Conditions: protein concentration: 200 nM; construct: GST-full length
Procedure: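 Universal 'all 10-mer' protein binding microarrays (Agilent AMADID 015681) probed with GST-tagged S. cerevisiae TFs (full-length or DBD) made by in vitro transcription/translation (PURExpress), about 100-200 nM. Bound TF was detected with fluorescent anti-GST. Each ungapped 8-mer (which stands for itself and its reverse complement) is scored by the PBM enrichment score (E-score), a modified Wilcoxon-Mann-Whitney statistic from -0.5 to +0.5, computed with the Universal PBM Analysis Suite. Scale: above 0.35 generally sequence-specific binding.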

Sequence	PBM E-score
CATCTTGA	0.123
ACTGACCG	-0.231
AACGCATT	0.174
GGAGATAC	-0.137
CTTCCCGA	-0.212
CGTGACAA	-0.021
GGGACGAA	-0.0575
CAGGGCGA	-0.0585
ATCTTGAG	0.198
AGCCCAAC	-0.0305
CGTCGCAG	-0.135
ATCGACTC	-0.116
AGTCATCA	-0.147
CAATGATG	0.0393
CCCGGTGA	-0.276
ACGTAACC	0.169
GGATGGTA	0.172
GGACATTA	0.0447
ATGATTAG	0.0811
ATAGGACG	-0.129
AGCCACCT	-0.118
GGCTACCA	0.0469
GATTTCAA	-0.0229
TGATAAAA	0.0406
GCCGTGAC	-0.0322

Sequence	PBM E-score
GCATGCGA	0.0389
GGTTCTGA	0.135
CGTTACGA	0.0257
CCCCTCCC	-0.254
ATGGCCCA	-0.188
TAAAAGTA	0.0712
AATCAAGA	0.0723
CCAAAACC	-0.0902
ACTGTCTG	-0.103
AAATAGTA	0.0336
GTCAACAA	0.112
AGCCAGCC	-0.0717
GCCGCCTA	-0.195
CGTGGGGC	-0.426
AAGCTAAT	-0.0226
AGTTATCG	-0.0747
CTGTGTAC	0.294
ACCAACAT	0.29
CTATCGAG	-0.169
CCGTACTC	-0.203
GGTCACCA	-0.227
CCAGCGAA	-0.151
CAGATCCA	-0.149
CAGGTGAA	0.079
ACTGTAAA	0.191

Sequence	PBM E-score
AAACCAAA	0.18
CATAAGAC	-0.0242
ATGGGTAG	-0.185
TGACCGAA	-0.126
GGCAGTAA	-0.0832
GCAGCACA	-0.144
ACCCGGAG	-0.004
GCCGACAC	-0.00156
GAGGATTA	0.0124
CTTCGATA	-0.0798
GAACTTGC	0.194
CCCGAAAA	0.0841
AGTGTGCC	0.355
CGGGGGTA	-0.123
GCCTGCCA	0.195
CATGTACC	0.255
AGGCTAAT	-0.0899
CACGCTTA	0.174
AATGCTGT	0.0173
ACGGGCTA	-0.0255
GCTTGCAA	0.125
TAATCTCA	0.00851
CCGCGACG	-0.246
ACATGGCG	0.163
AAGTTAAA	0.219

Sequence	PBM E-score
ATAGGTAG	0.109
CTTCTGAA	-0.192
AGACCGAG	0.0195
GCGAATAA	0.051
AAGTCCAG	-0.0785
CCAGGGCC	-0.154
GGAATGGA	-0.122
ACTTAAGC	0.00182
CGGGACGA	-0.174
AAAAAGAG	-0.0762
AATTCTAC	0.106
ACGATAAG	-0.105
CTGGGAAG	-0.17
AAAGGGCC	-0.132
CTGAGAAC	0.0275
CAAATGTC	-0.0375
TCATTTCA	0.0512
ATTGGCGC	-0.0773
ATGCACCC	-0.156
ACATGGAC	0.265
AGCCCACA	-0.164
CGGCATTC	-0.249
GGACAAAA	-0.0303
GGGGTATA	-0.0983
CACTCGAC	-0.0983

Sequence	PBM E-score
AAAGGACT	-0.211
GCCCGCAA	-0.0432
GTTCGCCA	-0.103
ATCATCAT	-0.116
GAATAGGA	0.154
CATCAAAA	-0.109
AAACTAAG	0.0831
ACAGATAT	-0.00474
ACGTTTCG	0.0515
CGGATCTA	0.0161
CTCTTACA	0.159
CGGAGCAA	-0.132
ATGTAAAC	0.414
ACACGCCA	0.226
ACTCCCGC	-0.25
TAGAGCGA	-0.107
AGCTGTCC	-0.181
ACTAAAAC	0.0977
TACGAAAA	0.0579
CGTCACCA	-0.356
AAACCTGC	-0.0203
CCCCGACC	-0.257
CGGCAACA	0.0868
AATAATGC	0.16
GGGTGTCA	-0.0655

Sequence	PBM E-score
TACGCCTA	0.107
AGAGTTTG	0.0686
ATCCTTAG	0.0242
ATCTCACG	-0.154
GGCTATAA	0.0956
AGATAGAT	-0.179
ACCACAGG	-0.0579
ATCCCGCC	-0.205
GCAACAGA	0.0208
AACCTCAT	-4e-05
AGGCTCAA	0.143
CGCAATTC	-0.0703
ACGCGTAA	0.317
ATGAATGG	-0.0783
CAAAGCGC	-0.213
ACCCGGAT	-0.299
CGGACCAG	-0.16
ACACGGCG	0.255
CGGGCCTA	-0.105
GACGAGCC	-0.12
GAACTTTA	0.0429
CATTGATC	-0.106
ATGTATAC	0.335
ACGACCCA	-0.102
GCATGCTA	-0.0217

Sequence	PBM E-score
CGGCCACA	-0.234
AATGAACA	0.155
GTATACGA	0.0121
GGCACGCC	0.237
CATTTTCC	0.0741
TTAAACAA	0.153
CATCCGGG	-0.188
CAAAAGGC	0.209
GTTCCCGA	0.049
AAGGACTG	-0.167
GCCCTAAC	0.0795
CTCATGGC	-0.227
TAGCTATA	-0.0969
CCAAAGCC	-0.00526
CCGTCTAG	-0.0693
ACACAGTC	0.144
GTCTCTAA	-0.157
AACCGCAA	-0.0523
ACTACATA	0.325
CTGATGCC	0.215
CTTTCTCC	-0.177
CTAATCAC	0.0311

Source: the supplement of paper PMC3334620
